Values marked as one replicate rest on one cluster of the flow cell; about a third of the high ones do not repeat.
The sequences below were run on ATP (assay: switch fluorescence ratio, 500 uM ATP over buffer (Cy3 cluster intensity, sum of 5 cycles each) (fold (ratio)); higher = stronger signal-on switching upon ATP binding; sequences stand for … in TCGTCGGCAGCGTCAGATGTGTATAAGAGACAGTTTTTTTTTTTTTTTTTTTTTTTTT…TC). Details: aptamer strand: ATP DNA aptamer (quencher-CACCTGGGGGAGTATTGCGGAGGAAGG + anchor), 100 nM annealed; ATP concentration: 500 uM; one replicate.
In short: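 Cy3-labelled switching-strand clusters on a modified Illumina MiSeq flow-cell were annealed to 100 nM quencher-labelled ATP aptamer and imaged first in selection buffer, then after 15 min with 500 uM ATP at 22 °C. NaOH stripping and re-annealing separated each of five buffer/ATP cycles, and clusters outside 100-1000 RFU were excluded. The fluorescence ratio sums target-cycle Cy3 intensity over buffer-cycle Cy3 intensity per cluster and averages it per switch-domain sequence.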
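Also: ATP exposure 15 min at 22 °C before imaging.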

Sequence | switch fluorescence ratio
ACGTTAGCGG | 1.03
ACGTTCAGAC | 1.35
ACGTTCCAGG | 2.22
ACGTTGAGAC | 1.05
ACGTTGCTG | 0.963
ACGTTGGGTG | 1.07
ACGTTTGCAC | 1.05
ACGTTTGCGA | 1.02
ACGTTTGGTA | 1
ACGTTTTACT | 1.19
ACGTTTTG | 0.981
ACGTTTTTAC | 1.17
ACTAAAATCA | 1.12
ACTAAACTGG | 1.1
ACTAACCCCG | 1.18
ACTAACGCGG | 1.05
ACTAAGCACG | 1.12
ACTAAGCCTT | 1.13
ACTAATGTAA | 0.99
ACTAATTGGT | 1.04
ACTACACCAC | 1.43
ACTACCCCGA | 1.03
ACTACCTC | 1.16
ACTACGGCGT | 1.08
ACTACTCAAC | 1.37

Sequence | switch fluorescence ratio
ACTACTTAGT | 1.05
ACTAGACGT | 1.18
ACTAGCTTCT | 1.01
ACTAGGACAG | 1.02
ACTAGGCCGT | 1.07
ACTAGGCTTT | 0.981
ACTAGGTTGA | 1.01
ACTAGTCTA | 1.01
ACTATAAGGT | 1.05
ACTATCACTC | 1.21
ACTATCCTTT | 0.97
ACTATGTGTT | 1.01
ACTATTACTC | 1.19
ACTCAAGTCA | 1.03
ACTCAAGTGC | 1.33
ACTCACAGAG | 1.01
ACTCACCCCC | 2.33
ACTCACTTAG | 1.16
ACTCAGGGGT | 1.28
ACTCAGTAAA | 1.08
ACTCAGTCGG | 1.07
ACTCAGTGAA | 1.12
ACTCAGTTAG | 1.08
ACTCATGGAC | 1.08
ACTCATTGTC | 1.07

Sequence | switch fluorescence ratio
ACTCCAGGCG | 1.05
ACTCCCTAAG | 2.34
ACTCCGGTGG | 1.08
ACTCCGTCAG | 6.95
ACTCCTCATT | 1.81
ACTCGGAAGC | 1.26
ACTCGGCGTG | 0.992
ACTCGGGACA | 1.09
ACTCGTGCAT | 1.37
ACTCTATATA | 1.08
ACTCTCCGAG | 1.02
ACTCTCGAGA | 1.03
ACTCTCGCGG | 1.57
ACTCTCGCTA | 4.7
ACTCTGATGT | 1.05
ACTCTGCATG | 6.71
ACTCTGTCAT | 1.46
ACTCTGTGAC | 2.01
ACTCTGTGCG | 0.991
ACTCTTTTTA | 1.02
ACTGAACGAG | 1.21
ACTGAATGAT | 0.972
ACTGAGCAGT | 1.08
ACTGAGCCTA | 1.01
ACTGAGGCAT | 1.11

Sequence | switch fluorescence ratio
ACTGAGGTTC | 1.04
ACTGAGTCAG | 1.03
ACTGATTAG | 0.999
ACTGATTTCT | 1.05
ACTGCTAGAC | 2.94
ACTGGGAAGG | 1.01
ACTGGTATGA | 1.05
ACTGGTTCGA | 0.955
ACTGGTTGAG | 0.955
ACTGGTTTCG | 1.01
ACTGTACGA | 1.52
ACTGTCACGG | 1.3
ACTGTCAGCT | 1.02
ACTGTTAATC | 1.03
ACTGTTAGC | 1
ACTGTTTCCC | 0.989
ACTGTTTTC | 1
ACTTAACGGG | 1.2
ACTTACGCGA | 1.13
ACTTAGATGG | 1.07
ACTTAGGCAT | 1.11
ACTTAGGCGA | 1.05
ACTTATGTTA | 1.02
ACTTCAAGAT | 1.05
ACTTCACAGC | 1.44

— the supplement of paper PMC10126150
